Molecules are shown by their SMILES. Hit rate of the full screen: of about 310,000 compounds, about 2,200 (0.71%) showed an effect of 50% or more. The effect is printed as a negative number. The list shows a part of the results.

human ether-à-go-go-related gene (hERG) potassium channel, sequence (Q12809 whole entry, looked up): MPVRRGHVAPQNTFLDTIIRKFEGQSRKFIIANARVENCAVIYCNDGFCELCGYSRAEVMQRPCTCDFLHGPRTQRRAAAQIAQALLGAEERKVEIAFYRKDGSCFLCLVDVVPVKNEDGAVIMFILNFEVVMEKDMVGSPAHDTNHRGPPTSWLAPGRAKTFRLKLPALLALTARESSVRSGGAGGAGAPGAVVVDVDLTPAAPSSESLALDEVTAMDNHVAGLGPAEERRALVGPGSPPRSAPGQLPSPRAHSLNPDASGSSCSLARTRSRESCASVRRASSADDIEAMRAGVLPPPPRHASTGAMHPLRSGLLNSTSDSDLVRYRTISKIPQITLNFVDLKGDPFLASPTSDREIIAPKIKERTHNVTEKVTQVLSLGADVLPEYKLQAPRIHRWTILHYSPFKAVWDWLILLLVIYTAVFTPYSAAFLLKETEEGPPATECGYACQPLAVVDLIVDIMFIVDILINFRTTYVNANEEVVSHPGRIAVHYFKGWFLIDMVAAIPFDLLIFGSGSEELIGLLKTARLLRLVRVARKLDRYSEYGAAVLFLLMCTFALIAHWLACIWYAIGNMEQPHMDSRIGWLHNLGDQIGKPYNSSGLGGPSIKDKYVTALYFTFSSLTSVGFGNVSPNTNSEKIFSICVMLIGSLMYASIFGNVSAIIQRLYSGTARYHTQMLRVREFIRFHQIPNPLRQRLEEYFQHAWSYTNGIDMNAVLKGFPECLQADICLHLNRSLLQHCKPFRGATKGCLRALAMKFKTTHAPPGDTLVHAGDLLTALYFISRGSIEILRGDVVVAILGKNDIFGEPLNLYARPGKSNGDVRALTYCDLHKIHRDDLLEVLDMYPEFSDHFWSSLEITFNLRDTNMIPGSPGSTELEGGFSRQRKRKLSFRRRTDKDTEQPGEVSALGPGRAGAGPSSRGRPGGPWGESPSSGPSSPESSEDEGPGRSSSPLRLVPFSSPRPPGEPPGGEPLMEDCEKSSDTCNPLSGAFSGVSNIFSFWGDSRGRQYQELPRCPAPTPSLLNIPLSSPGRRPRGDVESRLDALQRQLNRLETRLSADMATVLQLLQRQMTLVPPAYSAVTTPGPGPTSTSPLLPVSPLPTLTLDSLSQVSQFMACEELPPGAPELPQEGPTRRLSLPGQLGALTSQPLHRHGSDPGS

This assay addresses human ether-à-go-go-related gene (hERG) potassium channel (human, UniProt Q12809). The assay is described as follows: primary screen, population patch clamp on CHO cells stably expressing hERG.
As for `O=c1[nH]c(=O)n(C2C[C@H](O)[C@@H](CO)O2)cc1C(F)(F)F` (some centres unmarked), the “hERG current change (%, negative = inhibition) at 1uM” value amounted to 14.8%.

For `CCc1cccc(CC)c1NC(=O)CO/N=C(\C)c1cccs1`, the “hERG current change (%, negative = inhibition) at 1uM” value is listed as 3.17%.

Turning to `COc1cc(/C=C2\SC(=S)N(C(C(=O)O)c3ccccc3)C2=O)cc(OC)c1OC` (centres unmarked), the “hERG current change (%, negative = inhibition) at 1uM” value worked out at 16.5%.

Turning to `COC(=O)C1=C(O)C2(C(=O)O)CC(C(=O)OC)=C(O)C(C(=O)O)(C1)C2`, the “hERG current change (%, negative = inhibition) at 1uM” value is listed as 12.4%.

For `CC1CC1C(=O)OCC(=O)c1c(N)n(C)c(=O)n(C)c1=O` (centres unmarked), the “hERG current change (%, negative = inhibition) at 1uM” value stood at 2.67%.

Take `Cn1cc2ccc([N+](=O)[O-])cc2n1`: the “hERG current change (%, negative = inhibition) at 1uM” value came out at 3.32%.

Regarding `CCOC(=O)C1=C(COC(=O)[C@H](C)NS(=O)(=O)c2ccccc2F)NC(=O)NC1C` (some centres unmarked), the “hERG current change (%, negative = inhibition) at 1uM” value is 17.1%.

As for `Cc1c(C(=O)NCC2CCCO2)cccc1[N+](=O)[O-]` (centres unmarked), the “hERG current change (%, negative = inhibition) at 1uM” value amounted to 13.2%.

As for `Cc1ccc(-c2nnc(SCC(=O)NNC(=O)COc3cccc(C)c3)n2C)cc1`, the “hERG current change (%, negative = inhibition) at 1uM” value was 5.22%.

Take `CC12CCC(=O)N1C(C(=O)NNC(=O)c1ccc(F)cc1)CS2` (centres unmarked): the “hERG current change (%, negative = inhibition) at 1uM” value was determined as 22%.

As for `N#CCSc1ncccc1-c1nc2ccccc2[nH]1`, the “hERG current change (%, negative = inhibition) at 1uM” value is 12.2%.

`Cc1oc(-c2ccccc2Cl)[n+]([O-])c1C.Cl`: the “hERG current change (%, negative = inhibition) at 1uM” value worked out at 5.12%.

For the molecule `Cc1nnc(SCC(=O)NC(C)c2ccccc2)[nH]c1=O` (centres unmarked), the “hERG current change (%, negative = inhibition) at 1uM” value is listed as 8.14%.

Turning to `COC(=O)c1ccc(N=Cc2c(C(F)(F)F)[nH]n(C)c2=O)cc1`, the “hERG current change (%, negative = inhibition) at 1uM” value is on record as 5.16%.

For `Cc1c(NP(=O)(C(C)(C)C)C(C)(C)C)c(=O)n(-c2ccccc2)n1C`, the “hERG current change (%, negative = inhibition) at 1uM” value was 17.8%.

For the molecule `Cc1cc2c(C)nc(N/N=C/c3ccccc3)nc2o1`, the “hERG current change (%, negative = inhibition) at 1uM” value came to 9.09%.

With `CCOC(=O)c1ccc(S(=O)(=O)N2CCC(C(=O)OCC)CC2)cc1`, the “hERG current change (%, negative = inhibition) at 1uM” value is given as -1.07%.

For `CCc1ccc2nc(N=C(N)N)nc(C)c2c1`, the “hERG current change (%, negative = inhibition) at 1uM” value is listed as 10.6%.

Turning to `O=C1[C@@H]2[C@@H]3C[C@@H]([C@H]4ON=C(c5ccc(OCc6ccccc6)cc5)[C@@H]34)[C@@H]2C(=O)N1c1ccc2c(c1)OCO2`, the “hERG current change (%, negative = inhibition) at 1uM” value came to 9.21%.

As to `CCCN(CC(=O)Nc1ccc(F)c(F)c1F)C(=O)c1ccc(=O)n(Cc2ccccc2)n1`, the “hERG current change (%, negative = inhibition) at 1uM” value was -1.8%.

As for `CCCCC(=O)Nc1cc(NC(=O)CCCC)cc(C(=O)O)c1`, the “hERG current change (%, negative = inhibition) at 1uM” value amounted to 16.3%.

With `O=C(c1ccco1)N1CCN(C(=O)c2cn(-c3ccccc3)nc2-c2ccccc2)CC1`, the “hERG current change (%, negative = inhibition) at 1uM” value is recorded as -37%.

In the case of `COc1ccccc1N(CC(=O)NCc1ccc2c(c1)OCO2)C(=O)CCC(=O)Nc1nccs1`, the “hERG current change (%, negative = inhibition) at 1uM” value is 14%.

Take `O=C(CNC(=O)c1ccc2c(c1)OCO2)Nc1ncccc1O`: the “hERG current change (%, negative = inhibition) at 1uM” value was found to be 1.22%.

Take `CCCCn1c(N)c(N(CCOC)C(=O)c2ccco2)c(=O)[nH]c1=O`: the “hERG current change (%, negative = inhibition) at 1uM” value is given as 6.62%.

Consider `CCOc1ccc(Br)cc1S(=O)(=O)NCCN1CCCC1.Cl`, for which the “hERG current change (%, negative = inhibition) at 1uM” value stood at 11.3%.

As to `CCOc1ccc(S(=O)(=O)Nc2cccc(C(=O)NCC3CCCO3)c2)cc1` (centres unmarked), the “hERG current change (%, negative = inhibition) at 1uM” value came to 13.5%.

With `COC(=O)c1ccccc1NC(=O)CCn1c(=O)oc2ccccc21`, the “hERG current change (%, negative = inhibition) at 1uM” value turned out to be 8.15%.

Regarding `O=C(CN(C(=O)CNC(=O)c1cccs1)c1cccc(F)c1)NC1CCCC1`, the “hERG current change (%, negative = inhibition) at 1uM” value is listed as -1.64%.

For the molecule `COc1ccc(CN(C(=O)c2oc3ccc(F)cc3c2C)C2CCS(=O)(=O)C2)cc1` (centres unmarked), the “hERG current change (%, negative = inhibition) at 1uM” value is reported as 7.32%.

In the case of `COc1ccccc1CC(=O)c1ccc(OCc2ccccc2)cc1`, the “hERG current change (%, negative = inhibition) at 1uM” value amounted to 12%.

Regarding `COc1ccc(/C=C/c2cc(C(F)(F)F)[nH]c(=O)n2)cc1OC`, the “hERG current change (%, negative = inhibition) at 1uM” value came to 5.56%.

On to `CCCc1c(C(=O)N/N=C/c2ccc(OC)c(OCc3ccccc3)c2)nnn1-c1nonc1N`, for which the “hERG current change (%, negative = inhibition) at 1uM” value came to 8.55%.

With `O=C(c1ccccc1Cl)N1CCC(c2nc3c(nnn3Cc3ccco3)c(=O)[nH]2)CC1`, the “hERG current change (%, negative = inhibition) at 1uM” value is recorded as 12.1%.

With `Cc1cc(NC(=O)CSc2n[nH]c(CC(C)C)n2)no1`, the “hERG current change (%, negative = inhibition) at 1uM” value is listed as 5.61%.

With `O=C(CSc1nc2c(c(=O)n1-c1ccc(F)cc1)SCC2)Nc1ccc2c(c1)OCO2`, the “hERG current change (%, negative = inhibition) at 1uM” value was 13.1%.

With `Cc1ccc(Nc2nc(N)c(C#N)c(CC#N)c2C#N)cc1`, the “hERG current change (%, negative = inhibition) at 1uM” value amounted to 6.06%.

For `CC[C@]12CCCN3CCc4c(n(c5ccccc45)C(=O)C1)[C@@H]32`, the “hERG current change (%, negative = inhibition) at 1uM” value is recorded as -70.5%.

On to `O=[N+]([O-])c1ccccc1N(CC1CO1)S(=O)(=O)c1ccccc1` (centres unmarked), for which the “hERG current change (%, negative = inhibition) at 1uM” value was determined as 10.1%.

For the molecule `O=C(CNC(=O)c1cccs1)OCC(=O)c1ccccc1Cl`, the “hERG current change (%, negative = inhibition) at 1uM” value stood at 12.9%.

Take `O=C(c1ccc2c(c1)OCCO2)C1CCN(C(=O)Nc2ccc(F)cc2)CC1`: the “hERG current change (%, negative = inhibition) at 1uM” value stood at 10.2%.

Take `COCCN(C(=O)c1ccccc1Oc1ccccc1)c1c(N)n(CC(C)C)c(=O)[nH]c1=O`: the “hERG current change (%, negative = inhibition) at 1uM” value came to 10.4%.

With `O=C(Nc1cccc(C(=O)N2CCOCC2)c1)c1ncn[nH]1`, the “hERG current change (%, negative = inhibition) at 1uM” value is 8.2%.

In the case of `COc1cc2ccccc2cc1C(=O)OCC(=O)N(CC(C)C)c1c(N)n(Cc2ccccc2)c(=O)[nH]c1=O`, the “hERG current change (%, negative = inhibition) at 1uM” value was found to be 5.83%.
